The source of these data is article PMC12136788.

The chains are these.
T1: UNK ZnF1-3 (human, UniProt Q9C0B0 31-174)
T1 sequence: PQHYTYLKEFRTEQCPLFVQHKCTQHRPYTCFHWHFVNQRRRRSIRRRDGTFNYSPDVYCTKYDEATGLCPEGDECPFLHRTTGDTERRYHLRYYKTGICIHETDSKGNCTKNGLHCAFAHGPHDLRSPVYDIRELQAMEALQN

B1: chr2:4533090:4533091:+_ENSMUSG00000026657_ENSMUST00000075767|mus_hu|FALSE|FALSE (ssRNA)
RNA: GGGAGUUCUACAGUCCGACGAUCCGACAGUUAAACACUGAAUGGAUCGCAAUGUGCUUUUCCCUUGGUUUCCCAUAAAAACGAAAAUGAAACACCUUGUGCAAAAAAAUAGGAUACGCUUUUACUGGUUGGUUUAAUGAGAGACAACAGAGGAUUGAGCAUCA
B2: 17233736_17255093_132_5pUTR_ENSMUSG00000050240_ENSMUST00000090190|mouse|control|control (ssRNA)
RNA: GGGAGUUCUACAGUCCGACGAUCAGACUUCCUGAGGGUGCAUCAAAGCCUGGUUACCUCAGGUGCCUGCCAGAGGCCCCUCGUCUUGGGCGCCCGACCUGAGCUGCACGCGCCCGCCCUGUCCGCCCUCCGCCGGCCCCCGCUCAACAGAGGAUUGAGCAUCA
B3: chr1:138071448:138071449:+_ENSMUSG00000041642_ENSMUST00000075164|mus_mus|motif|central (ssRNA)
RNA: GGGAGUUCUACAGUCCGACGAUCGGUAUGCCGGCAUGGGCAGGUCCGGGGCAAUUGUCAGAGCUGCAAAGGAUAGAGAAGGCGGUCCCCUCAUCUGCAGAGCAAGCAGAGGGAAGGCCCCCACCCCCACCCCACCCCACCCCACAACAGAGGAUUGAGCAUCA
B4: chr2:191069868:191069869:-_ENSG00000198130_ENST00000359678|hu_mus|FALSE|FALSE (ssRNA)
RNA: GGGAGUUCUACAGUCCGACGAUCAGCUUGUAGGCUGCAUGAAAAUGGGCCUAGCCUCUGUGCUAUGAUGUGUUGACCUUUGCUCCAAAAUAAACUUUAGAAUUUCAAAUCACUGCUUCCCAGAGAUUUAAAGUAACUAUUCAACAACAGAGGAUUGAGCAUCA
B5: chr6:71561584:71561585:-_ENSMUSG00000053470_ENSMUST00000065509|mus_hu|motif|central (ssRNA)
RNA: GGGAGUUCUACAGUCCGACGAUCACAGCUUUCAUUAUCUACUUUUACUGAAGAUUCCUUUAAAUUCUGUGAUCGGCAAGCGGAAGCUGAAGGUUCUACCUUUUUUCCUGAACAGUUAUUAGGGCUAUCACUAUUGACACCUGCCAACAGAGGAUUGAGCAUCA
B6: 53397354_53399507_792_3pUTR_ENSMUSG00000032047_ENSMUST00000034547|mouse|control|control (ssRNA)
RNA: GGGAGUUCUACAGUCCGACGAUCCUUUCACCACCACAUCUGGUUUACCUUUCACUGAGAUGGUGAUGGGAGUAAUCUCACUGGCAAACUUCCCUGCGUCCCACGCUUCUUUACUUCUGGUGUAAGAGCUGAGAGCGUACGUAUCAACAGAGGAUUGAGCAUCA
B7: chr2:69673326:69673327:+_ENSMUSG00000042155_ENSMUST00000053087|mus_hu|FALSE|FALSE (ssRNA)
RNA: GGGAGUUCUACAGUCCGACGAUCAUCAGAAAUGCUAGGUAGUUUUAAACUUCAGUGAGUUAAAAAUAAUUAUUGUCUCUUUUUAAAAAAUGAAGAGUGUGGAAUAGAUGGUCUCACAGAUAACUAAUGGUGUAAAGGAGUUAACAACAGAGGAUUGAGCAUCA
B8: 102314616_102314736_7932_3pUTR_ENSG00000166135_ENST00000299163|human|control|control (ssRNA)
RNA: GGGAGUUCUACAGUCCGACGAUCGUCUCCCCUACUGAUCUGAGAGCACCACAUGGGGACGAACUAAUACAGUGCCUGGAACAGAAGUGUUCAACAAAUGGUAGCUAUUAACAUCCCACUCAUAUUUUUCUGAAUUUUGAUUGCCAACAGAGGAUUGAGCAUCA
B9: chr12:48362563:48362564:+_ENSG00000134291_ENST00000256686|hu_hu|hu_hu_hu_mus_False|48_108 (ssRNA)
RNA: GGGAGUUCUACAGUCCGACGAUCUCCGAAGGGUGAAUCGAUAGACCCUUGCGGGGGAAACUGUAAUCACUUUGUAUGGGGAAGGAAAAAAAAAGCCAAAAACUUUCCAAAAAGCGGGGGUGGGGUGAGGCGGGAGGGGGAGGUCAACAGAGGAUUGAGCAUCA
B10: chr7:141441981:141441982:+_ENSG00000106028_ENST00000265304|hu_mus|hu_hu_hu_mus_False|18_78 (ssRNA)
RNA: GGGAGUUCUACAGUCCGACGAUCCUCAUGUCUUACAAACUGACGAAAUACCUGUAAUACAGGUCUUCGAAACAUGGCUUCUGUUUUUCUUACAACCUAAUCUUUAGGCUUUUCCUACCUGACGAUCAGAAAAGAGAAAAAUGACAACAGAGGAUUGAGCAUCA
B11: chrX:140365796:140365797:-_ENSMUSG00000031285_ENSMUST00000033642|mus_mus|mus_mus_mus_hu_False|18_18 (ssRNA)
RNA: GGGAGUUCUACAGUCCGACGAUCCUUCUCAUUACUCAGUGCCUGCAAGGUUCUGGUUCGGUAGAAGCUACAGUGGGCGCUGUGAGUGGGGCUAGGCAACCCAUUCAUCCGGGAGCCUCUCAUAUUUCUGGAUGUCUUAUCUCUCAACAGAGGAUUGAGCAUCA
B12: chr16:94647761:94647762:+_ENSMUSG00000040785_ENSMUST00000117648|mus_hu|FALSE|FALSE (ssRNA)
RNA: GGGAGUUCUACAGUCCGACGAUCGAUAAUCUUAGAAAUGACACCUUCACAGUCAGGGGUAAGACAUAUUCCUUGUAGAAAAUCCUUGUCAAUUUUAUCAUUAAAGGUUGUAGUUUUUAACUUCUUCCAGCAAUUCAUGUGAAACAACAGAGGAUUGAGCAUCA
B13: chr7:141450121:141450122:+_ENSG00000106028_ENST00000265304|hu_mus|hu_hu_hu_mus_True|1_98 (ssRNA)
RNA: GGGAGUUCUACAGUCCGACGAUCUCAUCCGUUCUAUUCCUUCUCUUUUGUCUGGUCACUCAGAAAUAUAAUGUUAUCAGCUAUGAUUGUUGUUGCUUGCCGCCUCACAUUGUUUUUAUCCAUGUACUCGCCAUAGUCUAUUUUCAACAGAGGAUUGAGCAUCA
B14: chr15:83807826:83807827:-_ENSG00000166503_ENST00000299633|hu_mus|FALSE|FALSE (ssRNA)
RNA: GGGAGUUCUACAGUCCGACGAUCAUUAAGGGCAACUUCAUGCAACCAAAUAACAUAAAAUAAAGUCAACCUUAAAAGGGUUAAAAUGUCUCUUUUUCCUUCAACAGAACAGAGAGGAAUGUGACUAAUGCACACACAUACUGGCAACAGAGGAUUGAGCAUCA

The other results are listed elsewhere or left out.

The target of this test is T1, UNK ZnF1-3. The test can be described thus: nsRBNS (natural sequence RNA bind-n-seq); RBNS binding buffer (assumed for nsRBNS): 25 mM Tris pH 7.5, 150 mM KCl, 3 mM MgCl2, 0.01% Triton X-100, 500 ug/ml BSA, 20 U/ml SUPERase-In, 4 C; UNK is unkempt and MSI1 is Musashi-1; names of the RNAs are library labels; protein concentration not given here; high values mean tight binding.
For B1, the binding signal is 1.45 enrichment R.
To B2 belongs 0.676 enrichment R.
To B3 belongs 1.41 enrichment R.
Then B4, with 1.41 enrichment R; and B5, with 0.997 enrichment R.
Molecule B6 had a binding signal of 0.47 enrichment R.
To B7 belongs 1.75 enrichment R; to B8, 1.23 enrichment R.
To B9 belongs 2.74 enrichment R; to B10, 0.616 enrichment R.
To B11 belongs 0.711 enrichment R; to B12, 0.653 enrichment R.
In the case of B13, the binding signal was determined as 0.38 enrichment R.
To B14 belongs 0.975 enrichment R.
